# Results from the supplement of paper PMC8728848.
# The list shows a part of the results.
# B1: CSA (Cytisus scoparius), P29257 (protein)
# chain: SEELSFSFTKFKTDQKNLILQRDALITPTGKLQLTTVENGKPAAYSLGRALYSTPIHIWDKSTGDEASFATFFSFVISDAPNPSTAATDGLAFFLAPADTQPQSAGGYLGLFEKDSSYNSSNQIVAVEFDTYYNSAWDPQTNPHIGIDVNTIKSKKVSSWGFKNGNVATVLITYQPSSKSLVASLVYPSGQTSDKTSYIISANVDLKATVPEWVRIGFSATTGQTDNYIETHDILSWSFKSKLPATKN
# Key:
# Test in all cases: glycan array binding signal (z-score within array); higher = stronger binding
# Details in all cases: glycan notation: IUPAC condensed, linker removed
# [1] = target: Fuc(a1-2)Gal(b1-4)[Fuc(a1-3)]GlcNAc
# In short: (§1)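 Glycan array binding is given as a within-array Z-score, which can be read as non-binding when negative. The arrays, 3228 of them, came from the Consortium for Functional Glycomics database and were retained only where the protein sequence was available. Z-scores were averaged across arrays of the same protein sequence at different concentrations or buffers and across linkers.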
# [2] = target: Fuc(a1-2)Gal(b1-4)[Fuc(a1-3)]GlcNAc(b1-2)Man(a1-3)[Fuc(a1-2)Gal(b1-4)[Fuc(a1-3)]GlcNAc(b1-2)Man(a1-6)]Man(b1-4)GlcNAc(b1-4)[Fuc(a1-6)]GlcNAc
# In short: as §1
# [3] = target: Fuc(a1-2)Gal(b1-4)[Fuc(a1-3)]GlcNAc(b1-2)[Fuc(a1-2)Gal(b1-4)[Fuc(a1-3)]GlcNAc(b1-4)]Man(a1-3)[Fuc(a1-2)Gal(b1-4)[Fuc(a1-3)]GlcNAc(b1-2)Man(a1-6)]Man(b1-4)GlcNAc(b1-4)GlcNAc
# In short: as §1
# [4] = target: Fuc(a1-2)Gal(b1-4)[Fuc(a1-3)]GlcNAc(b1-3)Gal(b1-4)[Fuc(a1-3)]GlcNAc
# In short: as §1
# [5] = target: Fuc(a1-2)Gal(b1-4)[Fuc(a1-3)]GlcNAc(b1-3)Gal(b1-4)[Fuc(a1-3)]GlcNAc(b1-3)Gal(b1-4)[Fuc(a1-3)]GlcNAc
# In short: as §1
# [6] = target: Fuc(a1-2)Gal(b1-4)[Fuc(a1-3)]GlcNAc(b1-3)GalNAc
# In short: as §1
# [7] = target: Fuc(a1-2)Gal(b1-4)[Fuc(a1-3)]GlcNAc(b1-3)[Neu5Ac(a2-6)Gal(b1-4)GlcNAc(b1-6)]Gal(b1-4)Glc
# In short: as §1
# [8] = target: Fuc(a1-2)Gal3S(b1-4)GlcNAc
# In short: as §1
# [9] = target: Fuc(a1-2)Gal6S(b1-3)GlcNAc
# In short: as §1
# [10] = target: Fuc(a1-2)Gal6S(b1-3)GlcNAc6S
# In short: as §1
# Fuc(a1-2)Gal6S(b1-4)Glc = target: Fuc(a1-2)Gal6S(b1-4)Glc
# In short: as §1
# [11] = target: Fuc(a1-2)Gal6S(b1-4)Glc6S
# In short: as §1
# Fuc(a1-2)GlcNAc = target: Fuc(a1-2)GlcNAc
# In short: as §1
# Fuc(a1-2)[Gal(a1-3)]Gal = target: Fuc(a1-2)[Gal(a1-3)]Gal
# In short: as §1
# [12] = target: Fuc(a1-2)[Gal(a1-3)]Gal(b1-3)GalNAc
# In short: as §1
# [13] = target: Fuc(a1-2)[Gal(a1-3)]Gal(b1-3)GalNAc(b1-3)Gal(a1-4)Gal(b1-4)Glc
# In short: as §1
# [14] = target: Fuc(a1-2)[Gal(a1-3)]Gal(b1-3)GlcNAc
# In short: as §1
# [15] = target: Fuc(a1-2)[Gal(a1-3)]Gal(b1-3)GlcNAc(b1-2)Man(a1-3)[Fuc(a1-2)[Gal(a1-3)]Gal(b1-3)GlcNAc(b1-2)Man(a1-6)]Man(b1-4)GlcNAc(b1-4)GlcNAc
# In short: as §1
# [16] = target: Fuc(a1-2)[Gal(a1-3)]Gal(b1-3)GlcNAc(b1-2)Man(a1-3)[Fuc(a1-2)[Gal(a1-3)]Gal(b1-3)GlcNAc(b1-2)Man(a1-6)]Man(b1-4)GlcNAc(b1-4)[Fuc(a1-6)]GlcNAc
# In short: as §1
# [17] = target: Fuc(a1-2)[Gal(a1-3)]Gal(b1-3)GlcNAc(b1-3)GalNAc
# In short: as §1
# [18] = target: Fuc(a1-2)[Gal(a1-3)]Gal(b1-3)GlcNAc(b1-6)GalNAc
# In short: as §1
# [19] = target: Fuc(a1-2)[Gal(a1-3)]Gal(b1-4)Glc
# In short: as §1
# [20] = target: Fuc(a1-2)[Gal(a1-3)]Gal(b1-4)GlcNAc
# In short: as §1
# [21] = target: Fuc(a1-2)[Gal(a1-3)]Gal(b1-4)GlcNAc(b1-2)Man
# In short: as §1
# [22] = target: Fuc(a1-2)[Gal(a1-3)]Gal(b1-4)GlcNAc(b1-2)Man(a1-3)[Fuc(a1-2)[Gal(a1-3)]Gal(b1-4)GlcNAc(b1-2)Man(a1-6)]Man(b1-4)GlcNAc(b1-4)GlcNAc
# In short: as §1
# [23] = target: Fuc(a1-2)[Gal(a1-3)]Gal(b1-4)GlcNAc(b1-2)Man(a1-3)[Fuc(a1-2)[Gal(a1-3)]Gal(b1-4)GlcNAc(b1-2)Man(a1-6)]Man(b1-4)GlcNAc(b1-4)[Fuc(a1-6)]GlcNAc
# In short: as §1
# [24] = target: Fuc(a1-2)[Gal(a1-3)]Gal(b1-4)GlcNAc(b1-3)GalNAc
# In short: as §1
# [25] = target: Fuc(a1-2)[Gal(a1-3)]Gal(b1-4)GlcNAc(b1-3)[Fuc(a1-2)[Gal(a1-3)]Gal(b1-4)GlcNAc(b1-6)]GalNAc
# In short: as §1
# [26] = target: Fuc(a1-2)[Gal(a1-3)]Gal(b1-4)GlcNAc(b1-6)GalNAc
# In short: as §1
# [27] = target: Fuc(a1-2)[Gal(a1-3)]Gal(b1-4)[Fuc(a1-3)]Glc
# In short: as §1
# [28] = target: Fuc(a1-2)[Gal(a1-3)]Gal(b1-4)[Fuc(a1-3)]GlcNAc
# In short: as §1
# [29] = target: Fuc(a1-2)[Gal(a1-3)]Gal(b1-4)[Fuc(a1-3)]GlcNAc(b1-3)GalNAc
# In short: as §1
# [30] = target: Fuc(a1-2)[Gal(a1-4)]Gal(b1-4)GlcNAc
# In short: as §1
# [31] = target: Fuc(a1-2)[GalNAc(a1-3)]Gal
# In short: as §1
# [32] = target: Fuc(a1-2)[GalNAc(a1-3)]Gal(b1-3)GalNAc(a1-3)[Fuc(a1-2)]Gal(b1-4)GlcNAc
# In short: as §1
# [33] = target: Fuc(a1-2)[GalNAc(a1-3)]Gal(b1-3)GalNAc(b1-3)Gal(a1-4)Gal(b1-4)Glc
# In short: as §1
# [34] = target: Fuc(a1-2)[GalNAc(a1-3)]Gal(b1-3)GlcNAc
# In short: as §1
# [35] = target: Fuc(a1-2)[GalNAc(a1-3)]Gal(b1-3)GlcNAc(b1-2)Man(a1-3)[Fuc(a1-2)[GalNAc(a1-3)]Gal(b1-3)GlcNAc(b1-2)Man(a1-6)]Man(b1-4)GlcNAc(b1-4)GlcNAc
# In short: as §1
binder,measurement,setting,value
B1,glycan array binding signal (z-score),[1],-0.189
same,glycan array binding signal (z-score),[2],-0.134
same,glycan array binding signal (z-score),[3],-0.125
same,glycan array binding signal (z-score),[4],-0.183
same,glycan array binding signal (z-score),[5],-0.175
same,glycan array binding signal (z-score),[6],-0.115
same,glycan array binding signal (z-score),[7],-0.208
same,glycan array binding signal (z-score),[8],-0.158
same,glycan array binding signal (z-score),[9],-0.239
same,glycan array binding signal (z-score),[10],-0.196
same,glycan array binding signal (z-score),Fuc(a1-2)Gal6S(b1-4)Glc,-0.125
same,glycan array binding signal (z-score),[11],-0.197
same,glycan array binding signal (z-score),Fuc(a1-2)GlcNAc,-0.179
same,glycan array binding signal (z-score),Fuc(a1-2)[Gal(a1-3)]Gal,-0.18
same,glycan array binding signal (z-score),[12],-0.234
same,glycan array binding signal (z-score),[13],-0.199
same,glycan array binding signal (z-score),[14],-0.176
same,glycan array binding signal (z-score),[15],-0.153
same,glycan array binding signal (z-score),[16],-0.143
same,glycan array binding signal (z-score),[17],-0.159
same,glycan array binding signal (z-score),[18],-0.13
same,glycan array binding signal (z-score),[19],-0.176
same,glycan array binding signal (z-score),[20],-0.197
same,glycan array binding signal (z-score),[21],-0.181
same,glycan array binding signal (z-score),[22],-0.169
same,glycan array binding signal (z-score),[23],-0.195
same,glycan array binding signal (z-score),[24],-0.208
same,glycan array binding signal (z-score),[25],-0.16
same,glycan array binding signal (z-score),[26],-0.165
same,glycan array binding signal (z-score),[27],-0.201
same,glycan array binding signal (z-score),[28],-0.181
same,glycan array binding signal (z-score),[29],-0.159
same,glycan array binding signal (z-score),[30],-0.192
same,glycan array binding signal (z-score),[31],-0.194
same,glycan array binding signal (z-score),[32],-0.196
same,glycan array binding signal (z-score),[33],-0.184
same,glycan array binding signal (z-score),[34],-0.192
same,glycan array binding signal (z-score),[35],-0.115
